Results: the supplement of paper PMC8007513
Where a name gives a salt, the structure may show the parent alone. ± gives the standard error. Hit rate of the full screen: of about 1,300 compounds, about 75 (6%) showed an effect of 50% or more. The list shows a part of the results.

Test system: Trichoderma virens ATCC 9645
Assay: growth yield (OD600) relative to untreated control; higher = less growth inhibition
Conditions: compound concentration: 100 uM
In short: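 For each 96-well plate, 100 μl aliquots were prepared with Trichoderma virens ATCC 9645 spores suspended at 15,000 spores ml^−1 in potato dextrose broth. The spores had been harvested from potato dextrose agar plates after 7 days. Library compounds were present at 100 μM final, some wells also receiving a biocide at 200 ng ml^−1, and plates were grown at 30 °C with OD600 read on a BioTek EL800 at 40 h and 72 h. Reported growth, relative to the control lacking both agents, is the mean of duplicate screens.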

SMILES | growth yield (40 h) | growth yield (72 h)
C#C[C@]1(O)CC[C@H]2[C@@H]3CCC4=C(CCC(=O)C4)[C@H]3CC[C@@]21C [Norethynodrel] | 72.9 ± 2.7% | 79.92 ± 0.63%
CC(C)(C)NCC(O)c1cc(O)cc(O)c1 (centres undefined) [Terbutaline hemisulfate] | 97.7 ± 1.1% | 99.42 ± 0.42%
NS(=O)(=O)c1cc2c(cc1Cl)NC(CC1CCCC1)NS2(=O)=O (centres undefined) [Cyclopenthiazide] | 100 ± 1.9% | 106 ± 4.2%
CC[N+](CC)(CC)CCOc1cccc(OCC[N+](CC)(CC)CC)c1OCC[N+](CC)(CC)CC [Gallamine triethiodide] | 99.6 ± 1.1% | 100.6 ± 0.52%
CCOC(=O)[N-]c1c[n+](N2CCOCC2)no1 [Molsidomine] | 102 ± 2.1% | 104 ± 1.4%
CN[C@@H]1[C@H](O[C@H]2[C@H](O[C@H]3[C@H](O)[C@@H](O)[C@H](NC(=N)N)[C@@H](O)[C@@H]3NC(=N)N)O[C@@H](C)[C@]2(O)CO)O[C@@H](CO)[C@H](O)[C@H]1O [Dihydrostreptomycin sulfate] | 96.9% | 98%
NCc1ccc(S(N)(=O)=O)cc1 [Mafenide hydrochloride] | 107 ± 2.5% | 111 ± 4.2%
CCc1oc2ccccc2c1C(=O)c1cc(Br)c(O)c(Br)c1 [Benzbromarone] | 40.7 ± 5.7% | 77.8 ± 4.8%
CC/C(=C(\c1ccccc1)c1ccc(OCCN(C)C)cc1)c1ccccc1 [Tamoxifen citrate] | 1.11 ± 0.48% | 1.26 ± 0.21%
CCCCC[C@H](O)/C=C/[C@H]1[C@H](O)CC(=O)[C@@H]1CCCCCCC(=O)O [Alprostadil] | 107 ± 8.4% | 101 ± 6.2%
CCN1CCC[C@H]1CNC(=O)c1c(O)c(Cl)cc(Cl)c1OC [Raclopride] | 94.7% | 94.6%
CC[C@@H]([C@H](C)O)n1ncn(-c2ccc(N3CCN(c4ccc(OC[C@@H]5CO[C@@](Cn6cncn6)(c6ccc(F)cc6F)C5)cc4)CC3)cc2)c1=O [Posaconazole] | 8.9 ± 8.9% | 5.77 ± 5.6%
CN1CCC[C@@H]1CCO[C@](C)(c1ccccc1)c1ccc(Cl)cc1 [Clemastine fumarate] | 83.71 ± 0.16% | 97.43 ± 0.1%
CCOc1ccc(NC(C)=O)cc1 [Phenacetin] | 99.1 ± 4.1% | 100 ± 5.9%
CC(C(=O)O)c1ccc(C(=O)c2cccs2)cc1 (centres undefined) [Suprofen] | 91.2 ± 3.2% | 87.6 ± 3.7%
COc1cc2ncnc(Nc3ccc(F)c(Cl)c3)c2cc1OCCCN1CCOCC1 [Gefitinib] | 7.47 ± 0.16% | 6.29%
COc1ccc(C(=O)c2ccccc2O)c(O)c1 [Dioxybenzone] | 22.2% | 45.1 ± 2.7%
CC(C)(C)NC[C@H](O)COc1ccccc1C1CCCC1 [Penbutolol sulfate] | 109 ± 6.2% | 110 ± 5.1%
Nc1nc2[nH]cc(CCc3ccc(C(=O)N[C@@H](CCC(=O)O)C(=O)O)cc3)c2c(=O)[nH]1 [Pemetrexed disodium] | 96.9 ± 1.6% | 90.9 ± 5.3%
COc1ccc(CN2CCN(C(c3ccc(F)cc3)c3ccc(F)cc3)CC2)c(OC)c1OC [Lomerizine hydrochloride] | 97.2 ± 4.1% | 107 ± 3.1%
Cc1cnc(C(=O)O)c[n+]1[O-] [Acipimox] | 102 ± 2.4% | 102 ± 3.2%
O=C(O)[C@H]1/C(=C/CO)O[C@@H]2CC(=O)N21 [Clavulanate potassium salt] | 95.5 ± 2.4% | 87.9 ± 3.4%
O=C(OCCOCCO)c1ccccc1Nc1cccc(C(F)(F)F)c1 [Etofenamate] | 73.2 ± 7.8% | 100 ± 6.1%

SMILES | growth yield (40 h) | growth yield (72 h)
CN1CCOC(c2ccccc2)c2ccccc2C1 (centres undefined) [Nefopam hydrochloride] | 103 ± 3.5% | 103 ± 2.4%
CN1CCC(=C2c3ccccc3CCc3sccc32)CC1 [Pizotifen malate] | 103 ± 1.8% | 106.2 ± 0.52%
CCN(CC)CCOc1ccc(C(=C(Cl)c2ccccc2)c2ccccc2)cc1 [Clomiphene citrate (Z,E)] | 1.75 ± 1.1% | 2.2 ± 0.1%
CN(C)[C@@H]1C(O)=C(C(=O)NCNCCCC[C@H](N)C(=O)O)C(=O)[C@@]2(O)C(O)=C3C(=O)c4c(O)cccc4[C@@](C)(O)[C@H]3C[C@@H]12 [Lymecycline] | 82.1 ± 2.7% | 73.83 ± 0.63%
CCCCNc1ccc(C(=O)OCCN(C)C)cc1 | 99.752 ± 2.2e-14% | 102 ± 3.4%
CCCCCOC(=O)Nc1nc(=O)n([C@@H]2O[C@H](C)[C@@H](O)[C@H]2O)cc1F [Capecitabine] | 105.2 ± 0.64% | 103.2 ± 0.84%
CCC1NC(=O)c2cc(S(N)(=O)=O)c(Cl)cc2N1 (centres undefined) [Quinethazone] | 114 ± 1.4% | 107 ± 1.1%
Cc1cnc(C(=O)NCCc2ccc(S(=O)(=O)NC(=O)NC3CCCCC3)cc2)cn1 [Glipizide] | 103.7 ± 0.48% | 104.3 ± 0.52%
O=C1[C@H](CC[C@H](O)c2ccc(F)cc2)[C@@H](c2ccc(O)cc2)N1c1ccc(F)cc1 [Ezetimibe] | 96.6 ± 8.6% | 98.8 ± 6.3%
COC(=O)C1=C(C)NC(C)=C(C(=O)OCCN(C)Cc2ccccc2)C1c1cccc([N+](=O)[O-])c1 (centres undefined) [Nicardipine hydrochloride] | 89.4 ± 5.2% | 114 ± 7.8%
CN1CCN(c2c(F)cc3c(=O)c(C(=O)O)cn4c3c2SCC4)CC1 [Rufloxacin] | 92.8 ± 1.3% | 83 ± 7.5%
COC(=O)C1=C(C)NC(C)=C(C(=O)OCC(C)C)C1c1ccccc1[N+](=O)[O-] (centres undefined) [Nisoldipine] | 25.6 ± 0.48% | 23.9 ± 2.3%
O=C1CCc2ccc(OCCCCN3CCN(c4cccc(Cl)c4Cl)CC3)cc2N1 [Aripiprazole] | 98.2% | 96.8 ± 2.6%
CN(C)CCOC(c1ccc(Cl)cc1)c1ccccn1 (centres undefined) [Carbinoxamine maleate salt] | 97.7 ± 4.3% | 97.8 ± 2.6%
NC(=O)NC1NC(=O)NC1=O (centres undefined) [Allantoin] | 102 ± 4.3% | 99.5 ± 2.6%
O=C1C(O)=C([C@H]2CC[C@H](c3ccc(Cl)cc3)CC2)C(=O)c2ccccc21 [Atovaquone] | 95.1 ± 4.3% | 97.4 ± 1.6%
CC(C)NCC(O)c1ccc(O)c(O)c1 (single isomer, unassigned; (-)) [(-)-Isoproterenol hydrochloride] | 103 ± 1.9% | 96 ± 2.6%
Cc1ccccc1C(OCCN(C)C)c1ccccc1 (centres undefined) [Orphenadrine hydrochloride] | 98 ± 3.3% | 98 ± 2.7%
CCN(CC)CCNC(=O)COc1ccc(OC)cc1 [Mefexamide hydrochloride] | 104 ± 2.2% | 106 ± 2.5%
Cc1nc2n(c(=O)c1CCN1CCC(c3noc4cc(F)ccc34)CC1)CCCC2O (centres undefined) [Paliperidone] | 101 ± 5.2% | 100 ± 2.7%
CC(=O)OCC1=C(C(=O)O)N2C(=O)[C@@H](NC(=O)Cc3cccs3)[C@H]2SC1 [Cephalothin sodium salt] | 91.5 ± 2.5% | 86.3 ± 2.6%
Clc1ccc(C(Cn2ccnc2)OCc2csc3c(Cl)cccc23)c(Cl)c1 (centres undefined) [Sertaconazole nitrate] | 3.81% | 2.73%
CC1(C)S[C@@H]2[C@H](NC(=O)Cc3ccccc3)C(=O)N2[C@H]1C(=O)O [Benzathine benzylpenicillin] | 103 ± 3.8% | 96.5 ± 1.1%

SMILES | growth yield (40 h) | growth yield (72 h)
CC1(C)S[C@@H]2[C@H](NC(=O)Cc3ccccc3)C(=O)N2[C@H]1C(=O)O [Benzylpenicillin sodium] | 108 ± 1.6% | 104 ± 1.6%
CCCCc1nc(Cl)c(CO)n1Cc1ccc(-c2ccccc2-c2nnn[nH]2)cc1 [Losartan] | 102 ± 2.1% | 99.6 ± 1.7%
O=C1CCC(N2C(=O)c3ccccc3C2=O)C(=O)N1 (centres undefined) [Thalidomide] | 102 ± 1.1% | 103 ± 1.3%
O=C1NCCN1CCN1CCC(c2cn(-c3ccc(F)cc3)c3ccc(Cl)cc23)CC1 [Sertindole] | 34.5 ± 20% | 111 ± 2.4%
O=C1OC(CN2CCOCC2)CN1/N=C/c1ccc([N+](=O)[O-])o1 (centres undefined) [Furaltadone hydrochloride] | 97.1 ± 4.3% | 100 ± 2.7%
CNCCCN1c2ccccc2CCc2ccccc21 [Desipramine hydrochloride] | 94.83 ± 0.48% | 99.84 ± 0.42%
O=C(O)CCNC(=O)c1ccc(/N=N/c2ccc(O)c(C(=O)O)c2)cc1 [Balsalazide Sodium] | 107 ± 1.4% | 101.9 ± 0.84%
C[n+]1ccccc1/C=N/O [Pralidoxime chloride] | 103 ± 1.8% | 100.4 ± 0.94%
Cc1cccc(Nc2ccccc2C(=O)O)c1C [Mefenamic acid] | 85.1 ± 2.5% | 86 ± 2.7%
CCC(C)n1ncn(-c2ccc(N3CCN(c4ccc(OCC5COC(Cn6cncn6)(c6ccc(Cl)cc6Cl)O5)cc4)CC3)cc2)c1=O (centres undefined) [Itraconazole] | 4.77 ± 2.2% | 13.2%
CC(C)NCC(O)c1cc(O)cc(O)c1 (centres undefined) [Metaproterenol sulfate, orciprenaline sulfate] | 99.1 ± 1.6% | 99.95 ± 0.1%
O=C(O)CN(CCN(CC(=O)O)CC(=O)O)CCN(CC(=O)O)CC(=O)O [Pentetic acid] | 88.8 ± 5.2% | 91.8 ± 4.1%
C#CCN(C)CCCOc1ccc(Cl)cc1Cl [Clorgyline hydrochloride] | 91.7 ± 1.8% | 101 ± 3.1%
Cn1c(=O)c2c(ncn2CCO)n(C)c1=O [Etofylline] | 102.5 ± 0.48% | 102 ± 1.1%
COc1ccccc1N1CCN(CCCNc2cc(=O)n(C)c(=O)n2C)CC1 [Urapidil hydrochloride] | 102 ± 4.5% | 99.6 ± 1.1%
COc1nc(N)nc2c1ncn2[C@@H]1O[C@H](CO)[C@@H](O)[C@@H]1O [Nelarabine] | 112 ± 2.9% | 106 ± 3.8%
CCC(=O)OCC(=O)[C@@]1(OC(=O)CC)[C@@H](C)C[C@H]2[C@@H]3CCC4=CC(=O)C=C[C@]4(C)[C@@]3(Cl)[C@@H](O)C[C@@]21C [Beclomethasone dipropionate] | 103 ± 7.8% | 98.7 ± 3%
CCN(CC)Cc1cc(Nc2ccnc3cc(Cl)ccc23)ccc1O [Amodiaquin dihydrochloride dihydrate] | 102 ± 0.32% | 105 ± 0.52%
OCCN1C[C@H](O)[C@@H](O)[C@H](O)[C@H]1CO [Miglitol] | 101 ± 3% | 103 ± 3.1%
Cn1cnc([N+](=O)[O-])c1Sc1ncnc2[nH]cnc12 [Azathioprine] | 103.1 ± 0.48% | 104.56 ± 0.1%
CC(C)C(=O)Nc1ccc([N+](=O)[O-])c(C(F)(F)F)c1 [Flutamide] | 82 ± 3.2% | 85.1 ± 2.4%
